In all, about 81,000 sequences were measured (“one-hybrid fitness for binding parS DNA”: median about -0.17, highest 2% from about 0.51 on). This is one part of the list.
B1: Caulobacter ParB omega fusion; a variant is named by its letters at X, in order, B8GW30 (parent)
chain: MESVVVGEPGMSEGRRGLGRGLSALLGEVDAAPAQAPGEQLGGSREAPIEILQRNPDQPRRTFREEDLEDLSNSIREKGVLQPILVRPSPDTAGEYQIVAGERAWRAAQRAGLKTVPIMVRELDDLAVLEIGIIENVQRADLNVLEEALSYKVLMEKFERTQENIAQTIGKSXSHVANXMRLLXLPDEVQSYLVSGELTAXHARAIAAAADPVALAKQIIEGGLSVRETEALARKAPNLSAGKSKGGRPPRVKDTDTQALESDLSSVLGLDVSIDHRGSTGTLTITYATLEQLDDLCNRLTRGI

Variants of: B1
Assay: one-hybrid fitness for binding parS DNA (scaled: cognate 1, non-cognate 0); higher = stronger binding
Conditions: with parS DNA site
Outline: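 On M9-minus-histidine containing 0.1 mM IPTG and 5 mM 3-AT, E. coli USO cells with a HIS3 reporter, site 19 bp from the promoter, grew 48 hours at 37°C to select Caulobacter ParB libraries randomised at four specificity codons. Plasmids from before and after were Illumina-sequenced, with three replicate libraries pooled and variants under 10 reads left out. Fitness is the log change in variant-to-wild-type read ratio, rescaled against cognate and non-cognate.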

**Q.** For LVHC, which “one-hybrid fitness for binding parS DNA” value is on record?
**A.** The value was at most 0.2.

**Q.** For REVS, which “one-hybrid fitness for binding parS DNA” value is on record?
**A.** Its value is at most 0.2.

**Q.** GCKT was tested. Which “one-hybrid fitness for binding parS DNA” value did it give?
**A.** The value was at most 0.2.

**Q.** With MWRY as the variant, how does the “one-hybrid fitness for binding parS DNA” value read?
**A.** The value was at most 0.2.

**Q.** For QCGC, which “one-hybrid fitness for binding parS DNA” value is on record?
**A.** The value was at most 0.2.

**Q.** Which “one-hybrid fitness for binding parS DNA” value does the source give for YRVG here?
**A.** Its value is at most 0.2.

**Q.** For KMVS, which “one-hybrid fitness for binding parS DNA” value is on record?
**A.** Its value is at most 0.2.

**Q.** How did the “one-hybrid fitness for binding parS DNA” value turn out when GSCH was run?
**A.** Its value is at most 0.2.

**Q.** SKYH was tested. Which “one-hybrid fitness for binding parS DNA” value did it give?
**A.** The value was at most 0.2.

**Q.** With LEKP as the variant, how does the “one-hybrid fitness for binding parS DNA” value read?
**A.** The value was at most 0.2.

**Q.** How did the “one-hybrid fitness for binding parS DNA” value turn out when CTVC was run?
**A.** Its value is at most 0.2.

**Q.** With NTTV as the variant, how does the “one-hybrid fitness for binding parS DNA” value read?
**A.** The value was at most 0.2.

**Q.** How did the “one-hybrid fitness for binding parS DNA” value turn out when TLTK was run?
**A.** Its value is at most 0.2.

**Q.** How did the “one-hybrid fitness for binding parS DNA” value turn out when ANHS was run?
**A.** The value was at most 0.2.

**Q.** For PAYC, which “one-hybrid fitness for binding parS DNA” value is on record?
**A.** Its value is at most 0.2.

**Q.** How did the “one-hybrid fitness for binding parS DNA” value turn out when SAHV was run?
**A.** Its value is at most 0.2.

**Q.** For CGKW, which “one-hybrid fitness for binding parS DNA” value is on record?
**A.** Its value is at most 0.2.

**Q.** For TVPS, which “one-hybrid fitness for binding parS DNA” value is on record?
**A.** Its value is at most 0.2.

**Q.** How did the “one-hybrid fitness for binding parS DNA” value turn out when AGGS was run?
**A.** The value was at most 0.2.

**Q.** With SQEM as the variant, how does the “one-hybrid fitness for binding parS DNA” value read?
**A.** The value was at most 0.2.

**Q.** For KRFM, which “one-hybrid fitness for binding parS DNA” value is on record?
**A.** The value was at most 0.2.

**Q.** With GSAS as the variant, how does the “one-hybrid fitness for binding parS DNA” value read?
**A.** The value was at most 0.2.

**Q.** PDPR was tested. Which “one-hybrid fitness for binding parS DNA” value did it give?
**A.** Its value is at most 0.2.

**Q.** How did the “one-hybrid fitness for binding parS DNA” value turn out when PDVF was run?
**A.** The value was at most 0.2.

**Q.** With ELYG as the variant, how does the “one-hybrid fitness for binding parS DNA” value read?
**A.** The value was at most 0.2.

**Q.** Which “one-hybrid fitness for binding parS DNA” value does the source give for APTY here?
**A.** The value was at most 0.2.

**Q.** For KRDC, which “one-hybrid fitness for binding parS DNA” value is on record?
**A.** Its value is at most 0.2.

**Q.** With AYER as the variant, how does the “one-hybrid fitness for binding parS DNA” value read?
**A.** The value was at most 0.2.

**Q.** With SLSV as the variant, how does the “one-hybrid fitness for binding parS DNA” value read?
**A.** The value was at most 0.2.

**Q.** Which “one-hybrid fitness for binding parS DNA” value does the source give for NSVN here?
**A.** The value was at most 0.2.

**Q.** With FCKR as the variant, how does the “one-hybrid fitness for binding parS DNA” value read?
**A.** The value was at most 0.2.

**Q.** With YHVW as the variant, how does the “one-hybrid fitness for binding parS DNA” value read?
**A.** The value was at most 0.2.

**Q.** YYQV was tested. Which “one-hybrid fitness for binding parS DNA” value did it give?
**A.** The value was at most 0.2.

**Q.** With FPRC as the variant, how does the “one-hybrid fitness for binding parS DNA” value read?
**A.** Its value is at most 0.2.

**Q.** With LDRR as the variant, how does the “one-hybrid fitness for binding parS DNA” value read?
**A.** The value was at most 0.2.

**Q.** For QNRH, which “one-hybrid fitness for binding parS DNA” value is on record?
**A.** The value was at most 0.2.

**Q.** Which “one-hybrid fitness for binding parS DNA” value does the source give for PFYS here?
**A.** The value was at most 0.2.

**Q.** For HQCT, which “one-hybrid fitness for binding parS DNA” value is on record?
**A.** Its value is at most 0.2.

**Q.** Which “one-hybrid fitness for binding parS DNA” value does the source give for WKTR here?
**A.** The value was at most 0.2.

**Q.** With LYVC as the variant, how does the “one-hybrid fitness for binding parS DNA” value read?
**A.** The value was at most 0.2.

**Q.** How did the “one-hybrid fitness for binding parS DNA” value turn out when LWAL was run?
**A.** The value was at most 0.2.

**Q.** How did the “one-hybrid fitness for binding parS DNA” value turn out when RVCA was run?
**A.** Its value is 0.608.

**Q.** For HADM, which “one-hybrid fitness for binding parS DNA” value is on record?
**A.** The value was at most 0.2.

**Q.** How did the “one-hybrid fitness for binding parS DNA” value turn out when NVGW was run?
**A.** The value was at most 0.2.

**Q.** Which “one-hybrid fitness for binding parS DNA” value does the source give for SPRQ here?
**A.** The value was at most 0.2.

**Q.** How did the “one-hybrid fitness for binding parS DNA” value turn out when LNCR was run?
**A.** Its value is at most 0.2.

**Q.** How did the “one-hybrid fitness for binding parS DNA” value turn out when LRPW was run?
**A.** Its value is at most 0.2.

**Q.** GVRF was tested. Which “one-hybrid fitness for binding parS DNA” value did it give?
**A.** The value was at most 0.2.

**Q.** For KCCC, which “one-hybrid fitness for binding parS DNA” value is on record?
**A.** Its value is at most 0.2.

**Q.** How did the “one-hybrid fitness for binding parS DNA” value turn out when KSPM was run?
**A.** Its value is at most 0.2.

**Q.** How did the “one-hybrid fitness for binding parS DNA” value turn out when FAPC was run?
**A.** The value was at most 0.2.

**Q.** RYLF was tested. Which “one-hybrid fitness for binding parS DNA” value did it give?
**A.** Its value is 0.217.

**Q.** For LSTK, which “one-hybrid fitness for binding parS DNA” value is on record?
**A.** Its value is at most 0.2.

**Q.** NCWS was tested. Which “one-hybrid fitness for binding parS DNA” value did it give?
**A.** Its value is at most 0.2.

**Q.** QYYT was tested. Which “one-hybrid fitness for binding parS DNA” value did it give?
**A.** The value was at most 0.2.

**Q.** KQPL was tested. Which “one-hybrid fitness for binding parS DNA” value did it give?
**A.** The value was at most 0.2.

**Q.** With CSTA as the variant, how does the “one-hybrid fitness for binding parS DNA” value read?
**A.** Its value is at most 0.2.

**Q.** With YLDA as the variant, how does the “one-hybrid fitness for binding parS DNA” value read?
**A.** The value was at most 0.2.

**Q.** How did the “one-hybrid fitness for binding parS DNA” value turn out when PSAE was run?
**A.** The value was at most 0.2.

**Q.** For LDVR, which “one-hybrid fitness for binding parS DNA” value is on record?
**A.** The value was at most 0.2.

**Q.** For FEQS, which “one-hybrid fitness for binding parS DNA” value is on record?
**A.** The value was at most 0.2.

**Q.** How did the “one-hybrid fitness for binding parS DNA” value turn out when QTWR was run?
**A.** The value was at most 0.2.

**Q.** For LFVM, which “one-hybrid fitness for binding parS DNA” value is on record?
**A.** Its value is at most 0.2.

**Q.** With NPNL as the variant, how does the “one-hybrid fitness for binding parS DNA” value read?
**A.** Its value is at most 0.2.

**Q.** How did the “one-hybrid fitness for binding parS DNA” value turn out when RATT was run?
**A.** The value was 0.915.

**Q.** For LSFT, which “one-hybrid fitness for binding parS DNA” value is on record?
**A.** Its value is at most 0.2.

**Q.** With IDPD as the variant, how does the “one-hybrid fitness for binding parS DNA” value read?
**A.** Its value is at most 0.2.

**Q.** Which “one-hybrid fitness for binding parS DNA” value does the source give for LQET here?
**A.** Its value is at most 0.2.

**Q.** With DKKC as the variant, how does the “one-hybrid fitness for binding parS DNA” value read?
**A.** The value was at most 0.2.

**Q.** Which “one-hybrid fitness for binding parS DNA” value does the source give for NAPI here?
**A.** The value was at most 0.2.

**Q.** LPPC was tested. Which “one-hybrid fitness for binding parS DNA” value did it give?
**A.** The value was at most 0.2.

**Q.** IQKS was tested. Which “one-hybrid fitness for binding parS DNA” value did it give?
**A.** The value was at most 0.2.

**Q.** Which “one-hybrid fitness for binding parS DNA” value does the source give for CNAT here?
**A.** The value was at most 0.2.

**Q.** For RGTW, which “one-hybrid fitness for binding parS DNA” value is on record?
**A.** Its value is at most 0.2.

**Q.** For PLDC, which “one-hybrid fitness for binding parS DNA” value is on record?
**A.** The value was at most 0.2.

**Q.** For NATS, which “one-hybrid fitness for binding parS DNA” value is on record?
**A.** The value was at most 0.2.

**Q.** How did the “one-hybrid fitness for binding parS DNA” value turn out when PTHC was run?
**A.** The value was at most 0.2.

**Q.** With NLTC as the variant, how does the “one-hybrid fitness for binding parS DNA” value read?
**A.** Its value is at most 0.2.

**Q.** For RIIA, which “one-hybrid fitness for binding parS DNA” value is on record?
**A.** Its value is 0.499.

**Q.** For MCRC, which “one-hybrid fitness for binding parS DNA” value is on record?
**A.** The value was at most 0.2.

**Q.** ELRF was tested. Which “one-hybrid fitness for binding parS DNA” value did it give?
**A.** Its value is at most 0.2.

**Q.** RIVG was tested. Which “one-hybrid fitness for binding parS DNA” value did it give?
**A.** Its value is 0.946.

**Q.** With MSPC as the variant, how does the “one-hybrid fitness for binding parS DNA” value read?
**A.** Its value is at most 0.2.

**Q.** EIHS was tested. Which “one-hybrid fitness for binding parS DNA” value did it give?
**A.** Its value is at most 0.2.

**Q.** QYTR was tested. Which “one-hybrid fitness for binding parS DNA” value did it give?
**A.** The value was at most 0.2.

**Q.** RCAQ was tested. Which “one-hybrid fitness for binding parS DNA” value did it give?
**A.** Its value is 0.205.

**Q.** With SFWY as the variant, how does the “one-hybrid fitness for binding parS DNA” value read?
**A.** The value was at most 0.2.

**Q.** With IYAM as the variant, how does the “one-hybrid fitness for binding parS DNA” value read?
**A.** Its value is at most 0.2.

**Q.** Which “one-hybrid fitness for binding parS DNA” value does the source give for WWSG here?
**A.** The value was at most 0.2.

**Q.** How did the “one-hybrid fitness for binding parS DNA” value turn out when FHRN was run?
**A.** Its value is at most 0.2.

**Q.** With RIKL as the variant, how does the “one-hybrid fitness for binding parS DNA” value read?
**A.** Its value is at most 0.2.

**Q.** With TVNM as the variant, how does the “one-hybrid fitness for binding parS DNA” value read?
**A.** Its value is at most 0.2.

**Q.** How did the “one-hybrid fitness for binding parS DNA” value turn out when ILIS was run?
**A.** Its value is at most 0.2.

**Q.** RRFV was tested. Which “one-hybrid fitness for binding parS DNA” value did it give?
**A.** The value was at most 0.2.

**Q.** Which “one-hybrid fitness for binding parS DNA” value does the source give for YCTY here?
**A.** Its value is at most 0.2.

**Q.** Which “one-hybrid fitness for binding parS DNA” value does the source give for PIGT here?
**A.** Its value is at most 0.2.

**Q.** For PSPL, which “one-hybrid fitness for binding parS DNA” value is on record?
**A.** Its value is at most 0.2.

**Q.** ISLV was tested. Which “one-hybrid fitness for binding parS DNA” value did it give?
**A.** The value was at most 0.2.
